Test results: ChEMBL document CHEMBL1156829
The full ranking holds about 5,400 compounds; the median of “IFI” is about 2, and the highest 2% start at about 22. The list shows a part of the results.

Test: NOVARTIS: Inhibition Frequency Index (IFI) - the number of HTS assays where a compound showed > 50% inhibition/induction, expressed as a percentage of the number of assays in which the compound was tested.
Assay type: functional

Compound | IFI
O=C(c1ccccc1)C1NC1c1ccc(Br)cc1 (stereo not drawn) | 1.56%
CC(=O)OC1(C)CC(C)C(=O)C(C(O)CC2CC(=O)NC(=O)C2)C1 (stereo not drawn) | 22.6%
Clc1cccc(CNC2CCN(CCc3ccccc3)CC2)c1 | 0.781%
CC[C@H]1CN2CC[C@@H]1C[C@@H]2[C@@H](O)c1ccnc2ccc(OC)cc12 | 2.16%
COc1ccc(/C=C\c2cc[n+](C)cc2)cc1OC | 0%
COc1ccccc1N1CCN(Cc2cc(C)c(C)cc2O)CC1 | 2.94%
CCN1C(=Cc2sc3ccccc3[n+]2CC)[Se]c2ccccc21 | 22.6%
O=C(Cn1c2ccccc2c(=O)c2ccccc21)Nc1ccc([N+](=O)[O-])c(Br)c1 | 3.57%
C/C(=C\c1csc(C)n1)[C@@H]1C[C@@H]2O[C@@H]2CCC[C@H](C)C(O)[C@@H](C)C(=O)C(C)(C)[C@@H](O)CC(=O)O1 (stereo partly drawn) | 6.9%
C=CCNC(=S)N1CCc2c([nH]c3ccccc23)C1C(F)(F)F (stereo not drawn) | 2.44%
C[C@@H]1C[C@H]2CC[C@H](O2)[C@H](C)C(=O)O[C@@H](C)C[C@@H]2CC[C@@H](O2)[C@@H](C)C(=O)O[C@H](C)C[C@H]2CC[C@@H](O2)[C@H](C)C(=O)O[C@@H](C)C[C@@H]2CC[C@@H](O2)[C@@H](C)C(=O)O1 | 12.5%
C=C[C@H]1CN2CC[C@H]1C[C@H]2[C@H](OC(=O)c1ccc(Cl)cc1)c1ccnc2ccccc12 | 1.04%
COc1ccc2nc(NC(=N)N)nc(C)c2c1 | 0%
COC(=O)[C@]1(C)CC[C@]2(C)CC[C@]3(C)C4=CC=C5C(=CC(=O)C(O)=C5C)[C@]4(C)CC[C@@]3(C)[C@@H]2C1 | 21.4%
CCN1CCC(N2CCC(n3c(C4CCC4)nc4cc(F)ccc43)CC2)CC1 | 2.65%
O=C(NNC(=O)c1csnn1)c1ccc(Cl)cc1 | 1%
NC(=O)c1ccc2c(c1)N=C(c1cccnc1)N(C1CC1)C2 | 3.66%
CC=C[C@H]1O[C@@](O)([C@@H](C)C(O)C(C)[C@H]2OC(=O)C(OC)=CC(C)=C[C@@H](C)[C@@H](O)[C@@H](C)[C@@H](O)C(C)CC(C)=CC=C[C@@H]2OC)C[C@@H](O[C@H]2C[C@@H](O)[C@H](OC(N)=O)[C@@H](C)O2)[C@@H]1C (stereo partly drawn) | 15.5%
CC(Cc1ccccc1Sc1ccccc1O)N(C)C (stereo not drawn) | 7.14%
c1ccc(C[n+]2ccc(-c3nc4ccccc4s3)cc2)cc1 | 0.971%
CS/C(Cl)=C(/NC(C)=O)[P+](c1ccccc1)(c1ccccc1)c1ccccc1 | 5.34%
C=C[C@H]1CN2CC[C@H]1C[C@H]2[C@H](OC(=O)CC)c1ccnc2ccccc12 | 1.87%
C=C[C@H]1CN2CC[C@H]1C[C@@H]2[C@@H](OC(=O)Cc1ccccc1)c1ccnc2ccccc12 | 0.935%
